Among all 360,000 compounds or so, about 660 (0.18%) were called active. The inconclusive results got no clear call from the source; some entries with a clear call stand among them for comparison. Calls come from the whole dose curve; as a rule, active = well fitted inhibition curve with a large enough effect; inconclusive = small, poorly fitted or top-dose-only effect; inactive = no such curve, though single readings can be large or run the other way. No potency is given beside an inconclusive call; the fits are too rough.
Each compound was assayed against Rap guanine nucleotide exchange factor 4 (Homo sapiens) (UniProt Q8WZA2) (assay: qHTS for Antagonist of cAMP-regulated guanine nucleotide exchange factor 2 (EPAC2): primary screen). Settings: EPAC2 GEF exchange of Rap1B-BODIPY-GDP, fluorescence; activity, negative = inhibition: at 114 µM (top of the series) unless noted.
Chain of UniProt Q8WZA2 (Q8WZA2 whole entry, looked up): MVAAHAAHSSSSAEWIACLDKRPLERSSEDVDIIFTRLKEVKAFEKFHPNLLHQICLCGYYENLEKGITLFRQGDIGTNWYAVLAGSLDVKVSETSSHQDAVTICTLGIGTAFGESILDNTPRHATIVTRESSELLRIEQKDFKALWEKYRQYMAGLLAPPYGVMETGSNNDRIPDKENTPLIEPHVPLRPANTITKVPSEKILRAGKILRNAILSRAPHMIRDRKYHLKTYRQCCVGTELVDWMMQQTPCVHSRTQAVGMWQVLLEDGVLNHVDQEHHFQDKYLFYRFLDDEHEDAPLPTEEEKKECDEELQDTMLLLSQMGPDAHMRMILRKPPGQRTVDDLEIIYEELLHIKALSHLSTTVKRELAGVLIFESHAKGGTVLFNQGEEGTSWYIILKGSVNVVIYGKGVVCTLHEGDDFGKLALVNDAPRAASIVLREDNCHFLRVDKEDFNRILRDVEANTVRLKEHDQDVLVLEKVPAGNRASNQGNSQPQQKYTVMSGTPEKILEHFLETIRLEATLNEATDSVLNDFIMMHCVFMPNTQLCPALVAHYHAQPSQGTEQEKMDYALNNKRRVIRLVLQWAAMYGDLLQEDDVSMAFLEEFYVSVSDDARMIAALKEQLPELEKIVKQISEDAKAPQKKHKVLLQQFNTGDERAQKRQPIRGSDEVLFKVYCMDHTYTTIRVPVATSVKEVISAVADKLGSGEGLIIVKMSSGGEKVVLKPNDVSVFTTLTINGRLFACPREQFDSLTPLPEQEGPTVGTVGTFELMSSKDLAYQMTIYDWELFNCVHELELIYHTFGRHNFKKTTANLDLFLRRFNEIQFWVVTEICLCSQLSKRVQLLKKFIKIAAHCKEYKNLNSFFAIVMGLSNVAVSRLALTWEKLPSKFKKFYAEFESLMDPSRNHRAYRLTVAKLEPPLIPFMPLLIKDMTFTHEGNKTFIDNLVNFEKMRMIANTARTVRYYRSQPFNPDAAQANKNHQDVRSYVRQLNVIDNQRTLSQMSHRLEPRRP
% is set by controls: 0 for no effect and ±100 for the full control effect; potency is the fitted concentration of half-maximal effect; tags give direction and shape of the fitted curve.
Note: nearly all actives have a fitted effect of over 45% in size.

SMILES	Potency	activity, negative = inhibition
CCc1nc2ccc(C(=O)N(C)Cc3ccco3)cn2c1N(C)CCCc1ccccc1	inconclusive [inhibitor, partial curve, poor fit]	–
O=c1cc(C(F)(F)F)nc(SCc2cccc3ccccc23)[nH]1	inconclusive [inhibitor, partial curve]	–
CN=c1nc(-c2ccccc2)n(-c2ccccc2)s1	–	inactive: 3.79%
Cc1nc2c(OCc3ccc(C(F)(F)F)cc3)cccn2c1N(C)C(=O)CCC1CCCC1	inconclusive [inhibitor, full curve]	–
CC(=O)C1=C(O)C(=O)N(c2ccc(Br)cc2)C1c1ccc(Br)cc1 (stereo unspecified)	inconclusive [inhibitor, partial curve]	–
Cc1ccc(S(=O)(=O)N2[C@@H](c3ccc(Cl)cc3)C(C(=O)O)=CC[C@H]2c2ccc(Cl)cc2)cc1	inconclusive [inhibitor, partial curve]	–
O=C(OCC(=O)N1CCOCC1)c1ccc(Cl)c(S(=O)(=O)N2CCc3ccccc32)c1	inconclusive [inhibitor, single point]	–
CC(=O)N1N=C(c2cccs2)CC1c1ccc(Br)cc1 (stereo unspecified)	inconclusive [inhibitor, partial curve]	–
COc1ccc2c(c1O)-c1ccccc1CCN(C)C2	–	inactive: 9.52%
O=C(CCCc1c[nH]c2ccccc12)Nc1ccc2ccccc2c1	inconclusive [inhibitor, partial curve]	–
CCN1/C(=C/C=C/c2oc3ccc4ccccc4c3[n+]2CC)Oc2ccc3ccccc3c21	inconclusive [inhibitor, partial curve]	–
Cc1ccc(C)c(OCc2nc3ccccc3[nH]2)c1	–	inactive: -17.7%
COC(=O)C(Cc1ccc(O)cc1)NC(=O)Cn1cc(C)c(=O)[nH]c1=O (stereo unspecified)	–	inactive: 2.31%
CCCCCc1cc(OC)cc2c1C(=O)OC(C)(C)O2	inconclusive [inhibitor, single point]	–
Cc1ccc(/C=N/NC(=O)c2cc(C)oc2C)cc1	–	inactive: -1.83%
O=c1oc2c3c4c(cc2c(C(F)(F)F)c1CCN1CCOCC1)CCCN4CCC3	–	inactive: 59.8%
Cc1ccc(SC2=C(N(C)C)C(=O)c3ccccc3C2=O)cc1	inconclusive [inhibitor, partial curve]	–
Cc1ccccc1CN1C(=O)CSCC1(C)C(=O)NC(C)C (stereo unspecified)	–	inactive: -3.16%
O=C(O)c1cc(-c2ccc(-c3c(-c4ccc5c(c4)OCO5)noc3-c3ccsc3)cc2)nc2ccccc12	inconclusive [inhibitor, single point]	–
CCN(CC)C(=O)N1c2ccccc2Sc2ccccc21	inconclusive [inhibitor, full curve]	–
O=C1/C(=C/c2ccccc2)CCCc2ccccc21	–	inactive: -10.3%
CCCN1Cc2cccc(C(=O)N3CCN(c4cc(Cl)ccc4C)CC3)c2C1=O	inconclusive [inhibitor, partial curve]	–
Brc1ccccc1-n1nnc(-c2nccs2)n1	inconclusive [inhibitor, partial curve]	–
CC(C)(C)c1cccc(C2(O)C(=O)c3ccccc3C2=O)c1O	inconclusive [inhibitor, partial curve]	–

SMILES	Potency	activity, negative = inhibition
O=C1CC(c2ccccc2)Oc2ccccc21 (stereo unspecified)	inconclusive [inhibitor, partial curve]	–
CN1C(=O)/C(=C/c2ccccc2OCc2cccc(F)c2)N(C)C1=S	–	inactive: 8.46%
CC(C)CN(CC(C)C)C1=N/C(=C\c2ccco2)C(=O)N1c1ccccc1	inconclusive [inhibitor, partial curve]	–
CN1CCc2c(sc(NC(=O)CS(=O)(=O)c3ccc(F)cc3)c2C(N)=O)C1	–	inactive: 9.93%
CC(C)=CC1C(C(=O)Nc2ccc(S(=O)(=O)N3CCOCC3)cc2)C1(C)C (stereo unspecified)	inconclusive [inhibitor, partial curve]	–
Cc1ccnc(NC(=O)c2cc3cc(F)ccc3s2)c1	–	inactive: -13.1%
O=C(c1ccco1)N(Cc1ccccc1)c1cccc([N+](=O)[O-])c1	inconclusive [inhibitor, partial curve]	–
COc1ccc(C2CC(=O)c3c(O)cc(O)cc3O2)c(CC=C(C)C)c1OC (stereo unspecified)	inconclusive [inhibitor, partial curve]	–
OC1(c2ccc(Cl)cc2)CCN(Cc2cn[nH]c2-c2ccc(F)cc2)CC1	–	inactive: 2.64%
FC(F)Sc1ccc(NC(=S)NC(c2ccccc2)c2ccccc2)cc1	–	inactive: -8.09%
CCc1nnc(NC(=O)C=C(C)C)s1	–	inactive: 12.5%
Cc1ccc(C2C3CSCC=C3C(C#N)=C(N)C2(C#N)C#N)cc1 (stereo unspecified)	inconclusive [inhibitor, partial curve]	–
Cc1ccc([C@@H]2CC=C(C(=O)O)[C@H](c3ccc(Br)cc3)N2S(=O)(=O)c2ccc(C)cc2)cc1	inconclusive [inhibitor, partial curve]	–
COc1ccc(OC)c(NC(=O)c2csc(Cl)c2OC)c1	inconclusive [inhibitor, full curve, poor fit]	–
COc1ccccc1-c1nnc(NC(=O)CSc2nncn2C)s1	–	inactive: 1.87%
CC(=O)Nc1cccc(NC(=O)c2ccccc2Cl)c1	inconclusive [inhibitor, single point]	–
CCCC[C@@]1(C2CCCC2)Cc2cc(OCC(=O)O)c(Cl)c(Cl)c2C1=O	active: 44.7 µM	–
COc1ccc(CCNC(=O)c2nn(C)cc2Cl)cc1	–	inactive: 18.7%
N#C/C(C(=O)N1CCOCC1)=C1/SC(Cc2ccc(F)cc2)C(=O)N1c1ccccc1 (stereo unspecified)	–	inactive: 8.88%
O=c1c2ccccc2nc(N2CCN(c3ccccc3)CC2)n1Cc1ccccc1	inconclusive [inhibitor, single point]	–
CCOC(=O)c1c(NC(=O)/C=C/C(=O)O)sc(C)c1-c1ccc(C(C)(C)C)cc1	inconclusive [inhibitor, partial curve]	–
CCCOc1ccccc1NC(=O)c1c(-c2ccccc2)noc1C	inconclusive [inhibitor, full curve, poor fit]	–
CCc1cc(-c2n[nH]c(C)c2-c2nc(C)cs2)c(O)cc1OC	inconclusive [inhibitor, partial curve]	–
CSc1nsc(SC)c1-c1ccc(Cl)cc1	inconclusive [inhibitor, full curve]	–

SMILES	Potency	activity, negative = inhibition
CC(=O)N1CCN(c2ccccc2NC(=O)COc2ccccc2C)CC1	inconclusive [inhibitor, single point]	–
O=[N+]([O-])c1ccc(NS(=O)(=O)c2ccccc2)c(Cl)c1	inconclusive [inhibitor, partial curve]	–
Cn1cc(/C=C/c2cc[n+](C)cc2)c2cc(Cl)ccc21	–	inactive: 30.9%
N#Cc1ccc(-c2nc3ccc(Br)cn3c2Cc2ccccc2)cc1	–	inactive: -0.294%
Cc1c(CN2CCN(CC(C)C)C(CCO)C2)[nH]c2ccc(Cl)cc12 (stereo unspecified)	inconclusive [inhibitor, partial curve]	–
O=S(=O)(Nc1nc(-c2sccc2Cl)cs1)c1cc(Cl)ccc1Cl	active: 50.1 µM	–
COc1ccc(Nc2nc(S(=O)(=O)c3ccc(C)cc3)c(Cl)s2)cc1	inconclusive [inhibitor, partial curve]	–
CCc1ccc(NC(=O)CSc2ccc(-c3cccnc3)nn2)cc1	inconclusive [inhibitor, single point]	–
O=C1OC(c2ccccc2)Sc2ccccc21 (stereo unspecified)	inconclusive [inhibitor, partial curve, poor fit]	–
Cc1oc2ccc(O)cc2c1C(=O)c1ccc(Br)cc1	–	inactive: -24.2%
COC/C=C/C1=CC2=CC(=O)C(C)(OC(=O)c3cnc4ccccc4n3)C(=O)C2=CN1C(CO)CO (stereo unspecified)	–	inactive: 12%
Cc1ccc2nnn(Cc3cccc(C(C)(C)C)c3O)c2c1	inconclusive [inhibitor, partial curve]	–
O=C1NC[C@H](Cc2ccccc2)N(C[C@@H]2CCCN2C[C@H](Cc2ccc(O)cc2)N2C[C@H](Cc3ccccc3)N(CC3CCCCCC3)C(=O)C2=O)C1=O	inconclusive [inhibitor, full curve]	–
COc1ccc(CN(CCC(c2ccc(F)cc2)C2CCOC(C)(C)C2)C(=O)c2ccco2)cc1 (stereo unspecified)	inconclusive [inhibitor, full curve]	–
CCCCNC(=O)c1onc(CSc2ccccn2)c1C(=O)NCCCC	–	inactive: -22.5%
COc1ccc([C@H]2CC(=O)C=C(c3cc(OC)ccc3OC)C2)cc1	inconclusive [inhibitor, single point]	–
CCc1nc(C)cn1S(=O)(=O)c1cc(C)c(OC)cc1C	inconclusive [inhibitor, partial curve]	–
O=C1c2ccccc2C(=O)C12OC2c1cccc2ccccc12 (stereo unspecified)	inconclusive [inhibitor, full curve]	–
Cc1ccc(CCNC(=O)CN2C(=O)COc3ccc(S(=O)(=O)N4CCC(C)CC4)cc32)cc1	–	inactive: -12.7%
CCN1CCC(O)(/C=C/c2ccc(C(C)C)cc2)C(C(=O)/C=C/c2ccc(C(C)C)cc2)C1 (stereo unspecified)	inconclusive [inhibitor, single point]	–
N#C/C(=C\c1ccc(O)c(O)c1)C(=O)Nc1ccccc1	–	inactive: -2.03%
COC(=O)c1ccc(Cn2nc(-c3ccccc3)ccc2=O)cc1	inconclusive [inhibitor, partial curve]	–
Cn1c(N)c(N2CCCCC2)c(=O)n(CC(=O)Nc2ccc(Cl)c(Cl)c2)c1=O	inconclusive [inhibitor, full curve, poor fit]	–

From PubChem BioAssay AID720708 (National Center for Advancing Translational Sciences (NCATS), 2013)
